According to the supplement of paper PMC8728848:
The list shows a part of the results.

Assays:
Assay in all cases: glycan array binding signal (z-score within array); higher = stronger binding
Conditions in all cases: glycan notation: IUPAC condensed, linker removed
[1] = target: Fuc(a1-2)Gal
Summary of the method: (§1)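 From the Consortium for Functional Glycomics database, 3228 arrays were curated, keeping only those whose protein sequence was available. Binding is given as a within-array Z-score averaged across arrays sharing a protein sequence and across linkers. Negative Z-scores can be read as non-binding.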

[2] = target: Fuc(a1-2)Gal(b1-3)GalNAc
Summary of the method: as §1

[3] = target: Fuc(a1-2)Gal(b1-3)GalNAc(b1-3)Gal
Summary of the method: as §1

[4] = target: Fuc(a1-2)Gal(b1-3)GalNAc(b1-3)Gal(a1-4)Gal(b1-4)Glc
Summary of the method: as §1

[5] = target: Fuc(a1-2)Gal(b1-3)GalNAc(b1-4)[Neu5Ac(a2-3)]Gal(b1-4)Glc
Summary of the method: as §1

[6] = target: Fuc(a1-2)Gal(b1-3)GlcNAc
Summary of the method: as §1

[7] = target: Fuc(a1-2)Gal(b1-3)GlcNAc(b1-3)Gal(b1-4)Glc
Summary of the method: as §1

[8] = target: Fuc(a1-2)Gal(b1-3)[Fuc(a1-4)]GlcNAc
Summary of the method: as §1

[9] = target: Fuc(a1-2)Gal(b1-4)Glc
Summary of the method: as §1

[10] = target: Fuc(a1-2)Gal(b1-4)GlcNAc
Summary of the method: as §1

[11] = target: Fuc(a1-2)Gal(b1-4)GlcNAc(b1-3)Gal(b1-4)GlcNAc
Summary of the method: as §1

[12] = target: Fuc(a1-2)Gal(b1-4)GlcNAc(b1-3)Gal(b1-4)GlcNAc(b1-3)Gal(b1-4)GlcNAc
Summary of the method: as §1

[13] = target: Fuc(a1-2)Gal(b1-4)[Fuc(a1-3)]GlcNAc
Summary of the method: as §1

[14] = target: Fuc(a1-2)Gal(b1-4)[Fuc(a1-3)]GlcNAc(b1-3)Gal(b1-4)[Fuc(a1-3)]GlcNAc
Summary of the method: as §1

[15] = target: Fuc(a1-2)Gal(b1-4)[Fuc(a1-3)]GlcNAc(b1-3)Gal(b1-4)[Fuc(a1-3)]GlcNAc(b1-3)Gal(b1-4)[Fuc(a1-3)]GlcNAc
Summary of the method: as §1

[16] = target: Fuc(a1-2)GlcNAc
Summary of the method: as §1

[17] = target: Fuc(a1-2)[Gal(a1-3)]Gal
Summary of the method: as §1

[18] = target: Fuc(a1-2)[Gal(a1-3)]Gal(b1-3)GlcNAc
Summary of the method: as §1

[19] = target: Fuc(a1-2)[Gal(a1-3)]Gal(b1-4)Glc
Summary of the method: as §1

[20] = target: Fuc(a1-2)[Gal(a1-3)]Gal(b1-4)GlcNAc
Summary of the method: as §1

[21] = target: Fuc(a1-2)[Gal(a1-3)]Gal(b1-4)[Fuc(a1-3)]GlcNAc
Summary of the method: as §1

[22] = target: Fuc(a1-2)[Gal(a1-4)]Gal(b1-4)GlcNAc
Summary of the method: as §1

[23] = target: Fuc(a1-2)[GalNAc(a1-3)]Gal
Summary of the method: as §1

[24] = target: Fuc(a1-2)[GalNAc(a1-3)]Gal(b1-3)GlcNAc
Summary of the method: as §1

[25] = target: Fuc(a1-2)[GalNAc(a1-3)]Gal(b1-4)Glc
Summary of the method: as §1

[26] = target: Fuc(a1-2)[GalNAc(a1-3)]Gal(b1-4)GlcNAc
Summary of the method: as §1

[27] = target: Fuc(a1-2)[GalNAc(a1-3)]Gal(b1-4)[Fuc(a1-3)]GlcNAc
Summary of the method: as §1

[28] = target: Fuc(a1-2)[GalNAc(a1-4)]Gal(b1-4)GlcNAc
Summary of the method: as §1

[29] = target: Fuc(a1-2)[GalNAc(b1-3)]Gal
Summary of the method: as §1

[30] = target: Fuc(a1-3)GlcNAc
Summary of the method: as §1

B1: MMR (Homo sapiens), P22897 (protein)
chain: MRLPLLLVFASVIPGAVLLLDTRQFLIYNEDHKRCVDAVSPSAVQTAACNQDAESQKFRWVSESQIMSVAFKLCLGVPSKTDWVAITLYACDSKSEFQKWECKNDTLLGIKGEDLFFNYGNRQEKNIMLYKGSGLWSRWKIYGTTDNLCSRGYEAMYTLLGNANGATCAFPFKFENKWYADCTSAGRSDGWLWCGTTTDYDTDKLFGYCPLKFEGSESLWNKDPLTSVSYQINSKSALTWHQARKSCQQQNAELLSITEIHEQTYLTGLTSSLTSGLWIGLNSLSFNSGWQWSDRSPFRYLNWLPGSPSAEPGKSCVSLNPGKNAKWENLECVQKLGYICKKGNTTLNSFVIPSESDVPTHCPSQWWPYAGHCYKIHRDEKKIQRDALTTCRKEGGDLTSIHTIEELDFIISQLGYEPNDELWIGLNDIKIQMYFEWSDGTPVTFTKWLRGEPSHENNRQEDCVVMKGKDGYWADRGCEWPLGYICKMKSRSQGPEIVEVEKGCRKGWKKHHFYCYMIGHTLSTFAEANQTCNNENAYLTTIEDRYEQAFLTSFVGLRPEKYFWTGLSDIQTKGTFQWTIEEEVRFTHWNSDMPGRKPGCVAMRTGIAGGLWDVLKCDEKAKFVCKHWAEGVTHPPKPTTTPEPKCPEDWGASSRTSLCFKLYAKGKHEKKTWFESRDFCRALGGDLASINNKEEQQTIWRLITASGSYHKLFWLGLTYGSPSEGFTWSDGSPVSYENWAYGEPNNYQNVEYCGELKGDPTMSWNDINCEHLNNWICQIQKGQTPKPEPTPAPQDNPPVTEDGWVIYKDYQYYFSKEKETMDNARAFCKRNFGDLVSIQSESEKKFLWKYVNRNDAQSAYFIGLLISLDKKFAWMDGSKVDYVSWATGEPNFANEDENCVTMYSNSGFWNDINCGYPNAFICQRHNSSINATTVMPTMPSVPSGCKEGWNFYSNKCFKIFGFMEEERKNWQEARKACIGFGGNLVSIQNEKEQAFLTYHMKDSTFSAWTGLNDVNSEHTFLWTDGRGVHYTNWGKGYPGGRRSSLSYEDADCVVIIGGASNEAGKWMDDTCDSKRGYICQTRSDPSLTNPPATIQTDGFVKYGKSSYSLMRQKFQWHEAETYCKLHNSLIASILDPYSNAFAWLQMETSNERVWIALNSNLTDNQYTWTDKWRVRYTNWAADEPKLKSACVYLDLDGYWKTAHCNESFYFLCKRSDEIPATEPPQLPGRCPESDHTAWIPFHGHCYYIESSYTRNWGQASLECLRMGSSLVSIESAAESSFLSYRVEPLKSKTNFWIGLFRNVEGTWLWINNSPVSFVNWNTGDPSGERNDCVALHASSGFWSNIHCSSYKGYICKRPKIIDAKPTHELLTTKADTRKMDPSKPSSNVAGVVIIVILLILTGAGLAAYFFYKKRRVHLPQEGAFENTLYFNSQSSPGTSDMKDLVGNIEQNEHSVI
For B1, the “glycan array binding signal (z-score)” value [1] was -0.385, the “glycan array binding signal (z-score)” value [2] was -0.435 and the “glycan array binding signal (z-score)” value [3] was -0.291. For the same binder, the “glycan array binding signal (z-score)” value [4] was -0.361, the “glycan array binding signal (z-score)” value [5] was -0.249 and the “glycan array binding signal (z-score)” value [6] was -0.441. For the same binder, the “glycan array binding signal (z-score)” value [7] was -0.437, the “glycan array binding signal (z-score)” value [8] was -0.451 and the “glycan array binding signal (z-score)” value [9] was -0.429. The “glycan array binding signal (z-score)” value [10] was -0.424, the “glycan array binding signal (z-score)” value [11] was -0.421 and the “glycan array binding signal (z-score)” value [12] was -0.377. The “glycan array binding signal (z-score)” value [13] was -0.401, the “glycan array binding signal (z-score)” value [14] was -0.234 and the “glycan array binding signal (z-score)” value [15] was 0.125. The “glycan array binding signal (z-score)” value [16] was -0.407, the “glycan array binding signal (z-score)” value [17] was -0.411 and the “glycan array binding signal (z-score)” value [18] was -0.455. For the same binder, the “glycan array binding signal (z-score)” value [19] was -0.351, the “glycan array binding signal (z-score)” value [20] was -0.445 and the “glycan array binding signal (z-score)” value [21] was -0.414. The “glycan array binding signal (z-score)” value [22] was -0.446, the “glycan array binding signal (z-score)” value [23] was -0.457 and the “glycan array binding signal (z-score)” value [24] was -0.395. For the same binder, the “glycan array binding signal (z-score)” value [25] was -0.394, the “glycan array binding signal (z-score)” value [26] was -0.437 and the “glycan array binding signal (z-score)” value [27] was -0.377. The “glycan array binding signal (z-score)” value [28] was -0.452, the “glycan array binding signal (z-score)” value [29] was -0.381 and the “glycan array binding signal (z-score)” value [30] was -0.421.
